# Measured values: ChEMBL document CHEMBL1156829
# In all, about 5,400 compounds were measured (“IFI”: median about 2, highest 2% from about 22 on). The list shows a part of the results.
# Experiment: NOVARTIS: Inhibition Frequency Index (IFI) - the number of HTS assays where a compound showed > 50% inhibition/induction, expressed as a percentage of the number of assays in which the compound was tested.
# Type: functional
row,SMILES,IFI
1,O=S(=O)(/C=C/c1ccccc1)NCCCCNc1ccnc2cc(Cl)ccc12,6.41%
2,CCCOc1ccc2c(c1)C(=NN=C(N)N)c1cc(OCCC)ccc1-2,7.69%
3,CN(C)c1ccc(-c2cc(-c3ccccc3)[s+]c(-c3ccccc3)c2)cc1,31.4%
4,Cc1cccn2c(NCc3ccccc3)c(-c3ccccc3OC(=O)CCCCl)nc12,3.81%
5,COc1ccc(C(NC(=O)c2cccnc2)c2cc(Cl)c3cccnc3c2O)cc1 (stereo not drawn),7.69%
6,CC1CCCN(C(=O)C2CCN(Cc3ccccn3)CC2)C1 (stereo not drawn),0%
7,Cc1ccc(C(=O)c2c(C)oc3ccc(O)cc23)cc1,0%
8,O=S(=O)(c1ccc(Br)s1)N1CCN(c2ccccc2)CC1,0.794%
9,C1CCC(CN2CCc3nc(N4CCCCC4)sc3C2)CC1,5.56%
10,COc1cccc(C2(NC(=O)CCn3ccnc3-c3ccccc3)CCCC2)c1,0%
11,CC[n+]1c(/C=C/N(C)c2ccccc2)sc(-c2ccccc2)c1-c1ccccc1,14.3%
12,O=C(NCCCCNc1ccnc2cc(Cl)ccc12)c1ccc(Br)cc1,3.03%
13,FC(F)(F)c1ccc(Nc2nnnc3ccccc23)cc1,2.44%
14,COC(=O)C1=CNC=C(C(=O)OC)C1c1cc(OC)c(OC)c(OC)c1,2.38%
15,O=C(NC1CC1)C1CCN(c2cccc3c2C(=O)N(C2CCCCCCC2)C3=O)CC1,5.94%
16,CCOC(=O)c1cnc2ccccc2c1Nc1ccc(OC)c(OC)c1,14.3%
17,CCOC(=O)c1c(C)n(-c2ccccc2)c2ccc(OC(=O)c3ccccc3NC(=O)C(C)C)cc12,0%
18,Clc1ccc(-c2cn3c([n+]2-c2ccccc2)CCC3)cc1,0%
19,CCOc1ccc2nc(C)cc(Nc3ccc(N(C)C)cc3)c2c1,0%
20,Cc1cccc(C2Sc3ccccc3N=C3c4ccccc4C(=O)C32)c1 (stereo not drawn),0%
21,N#Cc1cccc(/C=C/C(=O)O)c1,0.952%
22,Cc1nc2cc(-c3ccc(I)cc3)nn2c(O)c1C,0%
23,O=C(c1ccncc1)N1CCN(Cc2ccc3c(c2)OCO3)CC1,0%
24,COc1ccccc1C(NC(=O)c1cc(OC)c(OC)c(OC)c1)c1cc(Cl)c2cccnc2c1O (stereo not drawn),4.17%
25,CCc1ccc2c(c1)C(c1ccncc1)=NNC(c1ccncc1)=N2,1.85%
26,COCCNC(=S)N1CCN(S(=O)(=O)c2ccc([N+](=O)[O-])cc2)CC1,0%

row,SMILES,IFI
1,CC(C)NCC(O)Cn1c2ccc(Br)cc2c2cc(Br)ccc21 (stereo not drawn),3.19%
2,C(#Cc1ccccc1)C[N+]1(CCOc2ccccc2)CCCCC1,5.56%
3,CC(C)NC(=O)N1CCN(C(=O)C(Cc2c[nH]c3ccccc23)NC(=O)Nc2cccc(C#N)c2)CC1C (stereo not drawn),1.83%
4,Cc1cccc(C)c1N(CC(=O)NCc1ccco1)S(C)(=O)=O,0%
5,COc1ccccc1N1CCN(C(=O)CCCCSc2nnc3c4cc(F)ccc4n(Cc4ccc(F)cc4)c3n2)CC1,0.909%
6,Oc1c(C(Nc2ccccn2)c2ccc(Cl)cc2Cl)ccc2cccnc12 (stereo not drawn),13.4%
7,Cc1ccc(Nc2nc(NCc3ccccc3)c3ccccc3n2)cc1,0%
8,CCCCCCCCN[C@@H](C)[C@@H](O)c1ccc(SC(C)C)cc1,1.35%
9,Cc1nc2ccccc2c(=O)n1NC(=O)c1cccc([N+](=O)[O-])c1,1.05%
10,Cc1nccn1CC(C)C(=O)N1CCCC(n2nc(-c3cccs3)ccc2=O)C1 (stereo not drawn),0%
11,CCN(CC)c1ccc(C=Cc2cc[n+](Cc3ccc(F)cc3)cc2)cc1,16.8%
12,O=C(Cc1cccnc1)N1CCC(Oc2ccncc2)CC1,5.56%
13,O=C1c2cccc(N3CCCC(C(=O)N4CCCCC4c4cccnc4)C3)c2C(=O)N1Cc1ccc(C(F)(F)F)cc1 (stereo not drawn),6%
14,Cn1c(=O)c2c(nc3n2CC(O)CN3c2ccccc2)n(C)c1=O (stereo not drawn),2.41%
15,CN(C)CCCNc1ncnc2c1[nH]c1ccc(F)cc12,5.56%
16,Cc1ccc(N2C(=O)c3sc4nnc(C)c(=O)n4c3C2=O)cc1,0%
17,CCC(CC)=NNC(=O)C(=O)NC1CCCCC1,0%
18,COc1cc(NC(C)CCCN(Cc2ccc(OC)c(OC)c2)C(=O)CC(C)CC(C)(C)C)c2ncccc2c1 (stereo not drawn),3.64%
19,CCOC(=O)c1c(C)n(-c2ccccc2)c2ccc(O)cc12,2.54%
20,Brc1cccc(CNC2CCN(CCc3ccccc3)CC2)c1,2.36%
21,CCCCNC(=O)c1ccc2c(c1)N=C(c1cccc(OCC)c1)N(CCCN1CCCC1=O)C2,1.24%
22,CCN(CC)CCCC(C)Nc1nc(/C=C/c2cc(OC)c(OC)cc2Cl)nc2cc(Cl)ccc12 (stereo not drawn),0%
23,COc1ccc(NC(=O)c2cc3cc(C4(O)CCN(CC5CC=CCC5)CC4)ccc3o2)cc1 (stereo not drawn),2.54%
24,Cc1cc(N2CCCC2)nc2ccc(NC(=S)NCCCN3CCN(Cc4ccccc4)CC3)cc12,11.8%
25,CCOC(=O)C(=O)N1c2ccc(OC)cc2-c2c(ssc2=S)C1(C)C,0%
26,COc1ccc(-c2noc(N3CCc4ccccc4C3)n2)cc1,0%

row,SMILES,IFI
1,O=C(NC(CN1CCCC1)c1ccccc1)C1CCCCN1S(=O)(=O)c1ccccc1 (stereo not drawn),2.91%
2,Cc1onc(-c2ccccc2Cl)c1C(=O)Nc1cc(Cl)ccc1Cl,1.15%
3,CCCCCOC(=O)C1=C(C)NC2=C(C(=O)CC(C)(C)C2)C1c1ccncc1 (stereo not drawn),2.38%
4,Cc1nc(-c2cnccc2C(F)(F)F)sc1C(=O)NN,0%
5,CCOC(=O)c1cnc(SCC(=O)Nc2cc(C)ccc2C)nc1N,0%
6,Cc1csc(NC(=O)C2c3ccccc3C(=O)N(CC(C)C)C2c2cccs2)n1 (stereo not drawn),3.03%
7,CCC(C(=O)N1CCN(Cc2ccccc2)CC1)c1ccccc1 (stereo not drawn),1.61%
8,CCOC(=O)CCC(=O)N(C)CCCNc1ccnc2cc(Cl)ccc12,2.75%
9,Fc1ccc(CSc2ccc3nnc(-c4cccnc4)n3n2)cc1,0%
10,CCN(CC)c1ccc(NC(=O)c2cccs2)cc1,7.09%
11,c1ccc(C2=NN(c3ccccc3)C(c3ccc4c(c3)OCO4)N2c2ccc(N3CCOCC3)cc2)cc1 (stereo not drawn),23.1%
12,CCOC(=O)C1CCN(C(=O)c2c(C)oc3c2C(=O)c2ccccc2C3=O)CC1,7.69%
13,CC(=O)N(C1=C(N2CCOCC2)C(=O)c2ccccc2C1=O)c1cc(C)cc(C)c1,7.14%
14,O=C(Nc1ccc(-c2cnc(-c3ccc(NC(=O)c4cccc([N+](=O)[O-])c4)cc3)nc2)cc1)c1cccc([N+](=O)[O-])c1,7.14%
15,CN1/C(=C/c2cccc[n+]2C)Sc2ccccc21,15.4%
16,CCC(=O)N1CCOc2c(cc(-c3csc4ccccc34)cc2OCCc2ccccn2)C1,0.826%
17,CSc1ccc(NC(=O)N2CCCn3cccc3C2c2ccc(C(F)(F)F)cc2)cc1 (stereo not drawn),2.83%
18,CCOC(=O)C1=C(c2ccccc2)N=c2sc(=Cc3cc(C)n(-c4ccc(F)cc4)c3C)c(=O)n2C1c1cccc(OC)c1OC (stereo not drawn),2.41%
19,c1ccc2cc3c(NCCCN4CCOCC4)ccnc3cc2c1,12.7%
20,CCCN1CCC(N2C[C@@H](NCc3cc(C)ccc3C)C[C@H]2C(=O)NCCc2ccc3c(c2)OCO3)CC1,6.25%
21,CCOC(=O)c1c(N)n(-c2ccc(CC)cc2)c2nc3ccccc3nc12,0%
22,O=C(C1CCCCN1)N1CC(c2ccccc2)c2ccccc2C1CN1CCCCC1 (stereo not drawn),8.57%
23,Oc1cccc(-c2cncc(-c3cccnc3)n2)c1,7.69%
24,N#Cc1ccc(-c2cnc(N)c(-c3ccc(C(N)=O)cc3)n2)cc1,0%
25,CCN(CC)CCCNc1ccnc2cc3ccccc3cc12,4.84%
26,FC(F)(F)c1cccc(NC(=S)N2CCCC2c2ccncc2)c1 (stereo not drawn),1.79%

row,SMILES,IFI
1,CCCOC(=O)C1=C(C)NC2=C(C(=O)CC(c3ccc(Cl)cc3)C2)C1c1ccccc1F (stereo not drawn),3.53%
2,CCOC(=O)c1cnc2c(Cl)cccc2c1Nc1cccc(C(C)=O)c1,3.28%
3,CC1CCCCN1CC(=O)N1CCN(C(=O)CN2CCCCC2C)CC1.CC=O (stereo not drawn),3.7%
4,COc1cc(NCc2cnc(N)nc2N)cc(OC)c1,0.8%
5,Cc1ccc(Nc2nc(N)c3ccccc3n2)cc1Cl,7.69%
6,C/C=C/[P+](c1ccccc1)(c1ccccc1)c1ccccc1,11.8%
7,CCCN1CCC(N2C[C@@H](NC3CCN(CCc4ccccc4)CC3)C[C@H]2C(=O)NCCc2ccc3c(c2)OCO3)CC1,1.98%
8,CCc1ccc2c(c1)C1(NN=C(c3ccc(C)cc3)S1)C(=O)N2 (stereo not drawn),9.3%
9,CCNC(=O)NS(=O)(=O)c1cnccc1Sc1cccc(C)c1,0%
10,Oc1ccc(Nc2ccnc3cc(Cl)ccc23)cc1,1.32%
11,c1ccc(-c2nc(NCCCn3ccnc3)cc(-c3ccncc3)n2)cc1,0%
12,Cn1cc([N+](=O)[O-])c(C(=O)NN=Cc2c[nH]c3ccccc23)n1,6.77%
13,COc1ccc(/C=C/C(=O)Nc2ccc3nc(N4CCN(C)CC4)cc(C)c3c2)cc1OC,8.33%
14,CCN1/C(=C\C=C\c2n(CC)c3ccc(C#N)cc3[n+]2CC)Oc2ccc(-c3ccccc3)cc21,10.5%
15,Cn1cnc2cc(OC3CCN(Cc4ccco4)CC3)ccc21,2.78%
16,CCOC(=O)C1=C(C)NC2=C(C(=O)C(C(=O)OCC)C(c3ccccc3OC)C2)C1c1sccc1C (stereo not drawn),3.49%
17,CC(c1nc2ccccc2c(=O)n1C)N1CCN(C(=O)C(C)(C)C)CC1 (stereo not drawn),0%
18,CCN1C=C(c2ccc(C)cc2)S/C1=C\c1sc2ccccc2[n+]1C,14.7%
19,Cc1cccc(C)c1-n1c(SCc2cccc(F)c2)nc2c(sc(=S)n2-c2c(C)cccc2C)c1=O,0%
20,CN(C)c1cccc(Nc2cc(-c3ccc(CC(N)C(=O)O)cc3)nc3ccnn23)c1 (stereo not drawn),1.1%
21,O=C(Cc1cccs1)NC1CCN(CC(O)CN(Cc2ccccc2)S(=O)(=O)c2ccccc2)C1 (stereo not drawn),1.92%
22,CCCc1cc(-c2onc(C)c2-c2ccc(C(=O)OCC)o2)c(O)cc1OC,3.51%
23,CC(OC(=O)c1ccccc1N1C(=O)C2C3C=CC(C4CC34)C2C1=O)C(=O)c1ccccc1 (stereo not drawn),0%
24,CCN1C(=O)N(CC)C(NNC(N)=S)C1NNC(N)=S (stereo not drawn),4.44%
25,CC(C)CCN(CCC(C)C)CC(O)Cn1c2ccc(Br)cc2c2cc(Br)ccc21 (stereo not drawn),5.5%
